# Source: PubChem BioAssay (NCATS)
# Inconclusive results, whose numbers are uncertain, are shown with a selection of clear calls. No potency is given beside an inconclusive call; the fits are too rough. The source made the active and inactive calls. The call rests on the fitted dose curve; in most records, active means well fitted curve in the direction sought with a large enough effect; inconclusive means small, poorly fitted or top-dose-only effect, or another doubt; inactive means no such curve, though single readings can be large; an effect the other way counts as inactive or inconclusive.
# Experiments:
# [1] = molecular target: Rap guanine nucleotide exchange factor 3 (Homo sapiens) (UniProt O95398); assay: Confirmatory qHTS for antagonist of cAMP-regulated guanine nucleotide exchange factor 3 (EPAC1) (AID 1645880); settings: EPAC1 Rap1B-BODIPY-GDP exchange, fluorescence; activity, negative = inhibition: at 115 µM (top of the series); further: nearly all actives have a fitted effect of over 55% in size;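 on activity, negative = inhibition: plate controls were DMSO only for no effect and full effect of the ATA control for full effect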
# Sequence of UniProt O95398 (O95398 whole entry, looked up): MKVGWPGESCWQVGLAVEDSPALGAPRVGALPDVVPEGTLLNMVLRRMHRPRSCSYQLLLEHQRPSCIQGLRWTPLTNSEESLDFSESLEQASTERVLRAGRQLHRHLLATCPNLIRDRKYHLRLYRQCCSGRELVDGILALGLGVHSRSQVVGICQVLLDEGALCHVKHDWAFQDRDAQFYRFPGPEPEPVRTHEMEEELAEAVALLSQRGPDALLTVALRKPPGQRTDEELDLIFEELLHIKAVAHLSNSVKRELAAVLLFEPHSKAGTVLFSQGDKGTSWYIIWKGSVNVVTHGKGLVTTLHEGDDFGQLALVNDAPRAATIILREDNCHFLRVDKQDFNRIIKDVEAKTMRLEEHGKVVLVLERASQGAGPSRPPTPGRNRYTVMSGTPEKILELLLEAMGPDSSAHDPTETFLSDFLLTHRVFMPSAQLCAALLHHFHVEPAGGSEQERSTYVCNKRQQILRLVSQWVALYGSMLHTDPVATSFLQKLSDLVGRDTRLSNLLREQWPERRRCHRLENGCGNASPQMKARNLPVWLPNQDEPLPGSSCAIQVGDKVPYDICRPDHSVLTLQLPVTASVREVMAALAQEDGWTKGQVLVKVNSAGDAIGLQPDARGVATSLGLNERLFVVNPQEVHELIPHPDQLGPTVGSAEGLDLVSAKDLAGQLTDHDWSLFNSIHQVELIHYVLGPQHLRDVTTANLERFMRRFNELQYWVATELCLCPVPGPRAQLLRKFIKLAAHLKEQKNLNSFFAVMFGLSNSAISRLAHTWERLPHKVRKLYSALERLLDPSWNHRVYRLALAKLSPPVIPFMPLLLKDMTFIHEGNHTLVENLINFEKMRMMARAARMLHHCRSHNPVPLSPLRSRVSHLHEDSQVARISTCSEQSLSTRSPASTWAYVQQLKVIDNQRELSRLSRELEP
# How it was run: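 Nucleotide exchange uses 100 nM EPAC1, 250 nM RAP1B-BODIPY-GDP and 50 uM GDP, with compounds in a concentration-titration series. After 5 min at room temperature, fluorescence (480 nm ex/540 nm em) is read every 5 min for 30 min. Data are normalized to control ATA and DMSO.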
# [2] = molecular target: Rap guanine nucleotide exchange factor 4 (Homo sapiens) (UniProt Q8WZA2); assay: Confirmatory qHTS for antagonist of cAMP-regulated guanine nucleotide exchange factor 4 (EPAC2) (AID 1645885); settings: activity change, negative = inhibition: at 12.7 µM (top of the series) unless noted; further: nearly all actives have a fitted effect of over 25% in size; on activity change, negative = inhibition: on the % scale 0 is the no-effect control and ±100 the full control effect
# Sequence of UniProt Q8WZA2 (Q8WZA2 whole entry, looked up): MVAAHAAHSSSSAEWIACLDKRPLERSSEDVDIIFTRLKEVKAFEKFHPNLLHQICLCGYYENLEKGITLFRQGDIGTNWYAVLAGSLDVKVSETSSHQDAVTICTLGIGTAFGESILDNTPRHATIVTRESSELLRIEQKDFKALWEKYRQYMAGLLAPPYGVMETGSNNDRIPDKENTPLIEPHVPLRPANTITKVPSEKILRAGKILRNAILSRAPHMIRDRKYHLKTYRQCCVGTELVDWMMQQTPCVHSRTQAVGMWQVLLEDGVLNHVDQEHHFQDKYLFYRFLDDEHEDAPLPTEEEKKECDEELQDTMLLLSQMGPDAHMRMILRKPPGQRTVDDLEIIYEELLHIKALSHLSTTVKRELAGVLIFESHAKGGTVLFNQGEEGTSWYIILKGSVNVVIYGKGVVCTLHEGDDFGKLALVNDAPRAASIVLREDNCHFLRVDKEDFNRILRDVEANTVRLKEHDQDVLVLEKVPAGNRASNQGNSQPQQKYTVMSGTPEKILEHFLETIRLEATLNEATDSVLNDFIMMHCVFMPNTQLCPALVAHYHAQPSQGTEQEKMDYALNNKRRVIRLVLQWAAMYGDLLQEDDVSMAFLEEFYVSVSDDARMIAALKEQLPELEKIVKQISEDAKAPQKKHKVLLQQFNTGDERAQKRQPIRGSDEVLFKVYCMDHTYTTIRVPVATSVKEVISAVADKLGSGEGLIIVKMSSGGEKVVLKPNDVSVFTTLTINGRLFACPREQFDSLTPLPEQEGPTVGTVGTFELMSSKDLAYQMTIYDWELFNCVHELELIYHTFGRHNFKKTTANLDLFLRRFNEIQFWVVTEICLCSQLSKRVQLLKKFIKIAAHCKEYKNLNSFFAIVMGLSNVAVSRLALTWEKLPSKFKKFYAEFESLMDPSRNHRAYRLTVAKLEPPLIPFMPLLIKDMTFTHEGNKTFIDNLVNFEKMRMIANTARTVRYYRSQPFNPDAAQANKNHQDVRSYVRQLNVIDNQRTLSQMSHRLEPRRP
# [3] = molecular target: Rap guanine nucleotide exchange factor 3 (Homo sapiens) (UniProt O95398); assay: Counterscreen qHTS for agonist of cAMP-regulated guanine nucleotide exchange factor 3 (EPAC1) (AID 1645889); settings: EPAC1 Rap1B-BODIPY-GDP exchange, fluorescence; activation: at 154 µM (top of the series) unless noted; further: nearly all actives have a fitted effect of over 40% in size; on activation: % of control where 0% means no effect
# How it was run: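 Rap1B-BODIPY-GDP 250 nM + GDP 50 uM; cpds 7-pt, final 9.74 nM–152 uM (activator mode) or from 7.32 nM upwards (inhibitor mode); RT; FI 480/540 nm at 5 and 30 min, then ± cAMP, reread.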
# Potency means the concentration at half of the fitted maximal effect; tags describe the fitted curve by direction and shape.
Compound,Potency [1],Potency [2],activation [3],Potency [3]
CCN1CCN(c2ccc(S(=O)(=O)N3CCCCC3)cc2NC(=O)c2ccc([N+](=O)[O-])s2)CC1,"inconclusive [inhibitor, partial curve]","inconclusive [inhibitor, single point]",inconclusive: 32.7% [activator],
COc1ccc2cc3[n+](cc2c1O)CCc1cc2c(cc1-3)OCO2,active: 19 µM,inactive,inconclusive: 41% [activator],
CCC(=O)NC(c1cccs1)c1cc([N+](=O)[O-])c2cccnc2c1O (stereo not drawn),active: 42.6 µM,"inconclusive [inhibitor, single point]",,"inconclusive [activator, partial curve, poor fit]"
CCOC1=C2[C@@H](CN(S(=O)(=O)c3ccc(C)cc3)[C@H]2c2ccccc2Cl)[C@H]2C(=O)NC(=O)[C@H]2C1,"inconclusive [inhibitor, partial curve]","inconclusive [inhibitor, partial curve, poor fit]",inconclusive: 36.4% [activator],
NC(=O)c1c(NC(=O)CN2CCN(S(=O)(=O)c3ccccc3)CC2)sc2c1CCC2,"inconclusive [inhibitor, partial curve]",inactive,,"inconclusive [activator, partial curve, poor fit]"
CCCc1nc2ccc(C(=O)OC)cn2c1Cc1ccccc1C(F)(F)F,"inconclusive [inhibitor, partial curve]",active: 30.1 µM,,inactive
CCOC(=O)C1Nc2c(F)cc(C)cc2C2c3ccccc3CC12 (stereo not drawn),inactive,"inconclusive [inhibitor, partial curve, poor fit]",inconclusive: 49.5% [activator],
Cc1ccc(SCc2cc(=O)c3c(=O)n(-c4ccccc4)[nH]c3[nH]2)cc1,"inconclusive [inhibitor, partial curve]","inconclusive [inhibitor, single point]",,"inconclusive [activator, full curve, poor fit]"
COc1ccc(OC)c(NC(=O)CSc2nc(O)cc(=O)n2CC(C)C)c1,"inconclusive [inhibitor, partial curve, poor fit]",inactive,inconclusive: 32% [activator],
Cc1ccc(O)c(N=Cc2cc(Cc3ccccc3)cc([N+](=O)[O-])c2O)c1,active: 33.8 µM,active: 47.8 µM,inconclusive: 33.3% [activator],
CC(C)NC(=O)c1sc2nc(-c3cccs3)cc(-c3cccs3)c2c1N,"inconclusive [inhibitor, partial curve]","inconclusive [inhibitor, single point]",,"inconclusive [activator, partial curve, poor fit]"
O=C(COC(=O)C1(c2ccc(Cl)cc2)CCCC1)NCc1ccco1,"inconclusive [inhibitor, partial curve, poor fit]",active: 75.7 µM,,"inconclusive [activator, full curve, poor fit]"
O=C(NNC(=O)c1ccccc1F)c1cccc(-n2cccc2)c1,"inconclusive [inhibitor, partial curve]",inactive,,"inconclusive [activator, full curve, poor fit]"
O=C(Nc1ccccc1Cc1ccccc1)c1ccccc1NS(=O)(=O)c1ccc(Cl)s1,active: 22.4 µM,"inconclusive [inhibitor, partial curve]",inactive: 8.31% [at 30.8 µM],
O=C(CS(=O)(=O)c1ccccc1)c1cc2cc(F)ccc2oc1=O,active: 75.7 µM,"inconclusive [inhibitor, partial curve]",,inactive
Cc1ccc(/C=N/Nc2cc(C)nc(NCc3ccccc3)n2)cc1,"inconclusive [inhibitor, full curve, poor fit]","inconclusive [inhibitor, single point]",,"inconclusive [activator, single point]"
